Experimental data from the supplement of paper PMC11417369.
± gives the standard deviation of the averaged measurements. Some of the results follow.

These sequences were tested on PfAP2-EXP AP2 domain (GST-tagged) (assay: gcPBM binding intensity (ln(normalized median fluorescence intensity)); higher = stronger DNA binding).
How it was run: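 Using an Agilent 4 × 180k array, primer-extended double-stranded 36-bp intergenic genomic probes and negative controls were exposed for 1 h to GST-fused P. falciparum DNA-binding domains expressed in E. coli. Binding was carried out in 1× PBS with 1% milk, 0.2 mg/ml BSA, 0.5% salmon testes DNA and 0.03% Triton X-100, and protein was detected with Alexa488 anti-GST antibody and a 488 nm scan. Binding intensity is the highest Masliner-normalised natural-log median intensity across replicate spots of either probe orientation.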

Sequence | gcPBM binding intensity (ln)
AAAATTTCAATAAATACACACATATATATATATATT [CACACA_site1685] | 8.29 ± 0.3
AAGAATACACCACGCACACACACTTGAGAAAAAATA [CACACA_site3828] | 8.61 ± 0.52
ATATTTTTATGATGTATCCAAGAAATGGAACTATAT [CACACA_negctrl_site1268] | 8.21 ± 0.38
AAGATTAATATTTTATGTACATATGTAATATATATG [XGTACX_site4367] | 8.37 ± 0.28
ATTTTAGATATCCTGCGTACACAAATTGCTTTATTT [XGTACX_site7149] | 9.13 ± 0.36
TTCTTTGTGGTATAGATACACACTATATTAATATGA [CACACA_site2150] | 8.85 ± 0.46
ATATATACCTAAGACACACACATATAGATTTATATA [CACACA_site6498] | 8.4 ± 0.4
TGTATAAGTGCCGTTATACACACGTTATATAAATAT [CACACA_site438] | 8.5 ± 0.41
TATCTTATTTTAAAAGTGCATGGAAAGGGGTTTTTG | 8.49 ± 0.38
TATATATACATATACACACACACACCCATATATATA [CACACA_site2246] | 8.84 ± 0.39
ATAAATTTATATACTTGTACATATATATATTACATA [XGTACX_site6697] | 8.53 ± 0.33
TTTTAGCACTTATTATAAGATATCAAAAAGATGGGT [XGTACX_negctrl_site325] | 8.55 ± 0.36
ACTATCATTTTTTTAACACACAAAAAAAATAAAATA [CACACA_site3519] | 8.43 ± 0.63
TTTGAAATAAAAAGGTGTACACTCGATTAATAAATA [XGTACX_site6943] | 8.7 ± 0.3
TTATAAAAATAATATCGTACAAATGATAAAGATTAA [XGTACX_site4893] | 8.52 ± 0.39
ACATATATATATATATATAATATTTTATATTTATTA [CACACA_negctrl_site713] | 8.24 ± 0.12
TGAATTCGTCAAAAGCGTACATATAATATCTTCTTG [XGTACX_site8842] | 8.69 ± 0.42
AAAATAATGTTTATATGTACATATATATATATATAT [XGTACX_site8815] | 9.96 ± 0.38
CCATTTACCCTTGCCATGCACACTTTTTTATAGAAA [CACACA_site3505] | 9.21 ± 0.29
ATATTTTTTTATAAATGTACAAAAATAATATTGCAT [XGTACX_site7399] | 8.39 ± 0.43
TTTTTATTTAATATTTTAAAAAAAAATCATTTTTAA [XGTACX_negctrl_site207] | 7.83 ± 0.47
TATATAGTAATATATACACACACTTGTCTTGTAAAA [CACACA_site990] | 8.44 ± 0.42

Sequence | gcPBM binding intensity (ln)
AAAAAATTGACTAATGCACACAATTACATATATATA [CACACA_site1689] | 8.62 ± 0.14
ATTATAAATACACGCACACACACTTATATATATATA [CACACA_site5776] | 9.99 ± 0.15
AATTGTTCTATGATTTGTACACACTTTTTTTTAAAA [XGTACX_site5984] | 8.88 ± 0.43
CAATTTTTCTATCATTGTACTTTTATATAATAGTGT [XGTACX_site1810] | 8.67 ± 0.26
CATTATAAAAAATAAAAAAGAAATAATTGTATATGC [CACACA_negctrl_site478] | 8.64 ± 0.49
ATTTTTTACGTATAGTACAAAGTTTTATGATACATA [CACACA_negctrl_site965] | 8.45 ± 0.31
ATGAAATATATTATATGTACATATTTATTTTTTATA [XGTACX_site7319] | 8.23 ± 0.18
AAATAGTAAATAAGGGGTACAAAAAAAAAAAAAAAA [XGTACX_site8362] | 8.24 ± 0.57
AAATGCTAAAAATAGAGTACAGATAACGAAAAGTGT [XGTACX_site8830] | 9.29 ± 0.59
AAGGAGAAATAAATATTAAAAAATTTATATATATAT [CACACA_negctrl_site1801] | 9.72 ± 0.13
TTCTTTTTTAACAACAAAAAAAAAAAAAAAAAAAAA [TGCATGCA_negctrl_site87] | 7.8 ± 0.37
TAATATTGCAAATATAAAAAAAAATAAACCATATAT [XGTACX_negctrl_site458] | 8.78 ± 0.49
TTTTTTGCTTTCAACACACATACAATCTATATAATC [CACACA_site4125] | 8.65 ± 0.4
TAAACCTGTAGAGATGCATGCATTGTTAACATGGTG [TGCATGCA_site515] | 9.69 ± 0.24
ACATGTGAAGGGAACATAAATTGGGGTTTTATATTG [XGTACX_negctrl_site508] | 8.88 ± 0.86
AAATTATAAATAATTTGTACATAAAAATTGGTAAAG [XGTACX_site5197] | 8.6 ± 0.24
GAATATAAAAAAGAATGTACTTGAACAGTCCTAAAA [XGTACX_site745] | 8.33 ± 0.34
TTTTGTTAGTTTTTTTTCTTATATTACATTTTCACG [CACACA_negctrl_site1466] | 8.82 ± 0.42
TTTTTTATATTAAATGAAGAATATACAAAATTTTAA [CACACA_negctrl_site558] | 8.27 ± 0.45
ATGTAGTCTCAAGACTGTACAAACAAGTAAATAAAA [XGTACX_site4120] | 8.81 ± 0.49
AATAAATATCAATACACACACACAAAAGTGAATAAA [CACACA_site3763] | 8.54 ± 0.62
TATACATTTATGTACACACACATATATGTATATTTA [CACACA_site2966] | 8.33 ± 0.28

Sequence | gcPBM binding intensity (ln)
ACAATTTTATTTAAAGTGCATGTAAAATTAAAACTT | 8.91 ± 0.16
AAAGGAAGAAAAAATAGTACATATATATATATATAA [XGTACX_site766] | 8.63 ± 0.25
GTTAAGGGTATATATACACACATATGTAATACATGA [CACACA_site5650] | 8.91 ± 0.47
TCCATCCACATATATGTACACACATATATATATATA [CACACA_site8970] | 10.1 ± 0.4
TACTGTGTTTTGGTTGTACACACGCTACATTATATA [CACACA_site8863] | 9.01 ± 0.36
TTATAATATTAATGTGCACACAATTAAAATATTATA [CACACA_site2046] | 8.74 ± 0.028
TTCTTAAATGTAAATGTATATGTATTAAAAAGAGAA [TGCATGCA_negctrl_site597] | 8.61 ± 0.44
ATAGTATACAGACACACACACACACCCATATATATA [CACACA_site1736] | 8.71 ± 0.39
AGGATATAAATATTCACACACACATGGAGATATATA [CACACA_site6317] | 8.71 ± 0.59
ATACTAAATGAACACACACACATATATATATATAAT [CACACA_site4232] | 8.82 ± 0.42
AACAGACATAGAAACACACATACATACATACATACA [CACACA_site2479] | 9.36 ± 0.28
TATAACTTTTTTATTACACACCTATGTAATATTATA [CACACA_site944] | 8.46 ± 0.29
AAATAAATATATAATACACACAAAAATATAAAATGG [CACACA_site5943] | 8.87 ± 0.35
ATGTTTTATATTTTTTTTTTGTTTGCTTGTTTCCTC [CACACA_negctrl_site870] | 8.73 ± 0.7
AAGGGAAATATTGAAACACACACGAACCCACGTATT [CACACA_site252] | 8.54 ± 0.65
TATATTATAATAAGACGTACAAGGATGTTAAAACTT [XGTACX_site5828] | 8.68 ± 0.28
TTAATTATGGACAGGGTGCACATGAATAATAATACC | 9.76 ± 0.21
TACATTAACGGATTATTTCTCAATACAACATCATTT [CACACA_negctrl_site981] | 8.44 ± 0.64
GTTTGTATGTCCAAATGTACATATGATTTTATGAAA [XGTACX_site6595] | 8.72 ± 0.28
AAAATTAAAAATTACTGTACGTATTAGAGAATAAAT [XGTACX_site2567] | 8.53 ± 0.32
ACCTAATTCAAATACAGTACATATACAATATATATA [XGTACX_site2779] | 8.55 ± 0.25
AAAAAATATTGAAGTACACACATTATAAACTTTTTT [CACACA_site5029] | 8.41 ± 0.33

Sequence | gcPBM binding intensity (ln)
TATATTGTATAAAAATGTACATGCAATAAATTTAGT [XGTACX_site5621] | 9.37 ± 0.39
AAAATATTAATTAATACATGCATATATATATATATA [TGCATGCA_site585] | 10.1 ± 0.34
GTATATATCTCAGAGCATAATAGTATAATTCGGTCA [CACACA_negctrl_site876] | 8.46 ± 0.53
AATTATTTTAGAAACACACAAATTAGAAAAAACATA [CACACA_site7673] | 8.71 ± 0.57
CAGAAATATTCTTATACACACTGTTCTTATATTCCT [CACACA_site4318] | 8.71 ± 0.48
AATATATATATAAATAGTACATATAAAGAGAATTTT [XGTACX_site3168] | 8.64 ± 0.47
TTTATCTTTTTTTGTTGTACAGATGTTTATATTTTA [XGTACX_site4065] | 8.82 ± 0.42
ATTAAAACAAAATGTACACACATATAATTTAATGAC [CACACA_site878] | 8.62 ± 0.29
AATAACATTATTTTATGTACACATGAAAAATAAAAT [XGTACX_site4657] | 8.65 ± 0.28
AATATCAAAATAACATGTACATGTTATATTTTATTT [XGTACX_site5891] | 8.48 ± 0.38
TGTAATAAACTACTTTTTTTTTTTTTTTTTTTTTTT [CACACA_negctrl_site1021] | 8.99 ± 0.35
TGATATTTCATCATAGTGCAATATGGCATATAAATA [GTGCAC_site9433] | 8.64 ± 0.099
CATATATACAGTAACACACACAAAAAAATATGAATA [CACACA_site3996] | 8.82 ± 0.52
TTATTTATTTATTATAGTTCACTTGAAAATACAAGA [CACACA_negctrl_site1480] | 8.26 ± 0.38
TAATTTATAACACGCGCACACATATATATATAGTAA [CACACA_site121] | 9.16 ± 0.4
AATAGTGTCATAAAAACTATTATCATATAATGTGAA [CACACA_negctrl_site1578] | 8.42 ± 0.51
TTGTTGTGTATTATCGTGCACATAATATAAAAGATT | 9.31 ± 0.45
TTTCTTTTTAACTCTTACATAATAGGTGGTAGAAGG [TGCATGCA_negctrl_site176] | 8.59 ± 0.31
TTCTTAAAAAATCAAACACACATATATAAATACATA [CACACA_site5301] | 8.6 ± 0.3
AAAAAATATAAAAAAACACACAAAAAAAAAAAAAAA [CACACA_site1382] | 8.1 ± 0.37
CCCCATTTATCTTAAGCATGCCATGGTTTTAGATAT [TGCATGCA_site24] | 9.45 ± 0.45
AAAGACGTTTATAAATGTACATACACTTTAAAAGTT [XGTACX_site8753] | 8.66 ± 0.3
